# Assay results: the supplement of paper PMC9446081
# In all, about 39,000 compounds went through this assay and about 220 (0.56%) showed activity. Some of the results follow.
# Tested on: Escherichia coli K-12 BW25113
# Experiment: relative growth (OD600 normalised to plate interquartile mean) (fraction); higher = less growth inhibition, active = 0.2 or less
# Conditions: 50 µM; LB; incubation time: overnight (16-24 h)
# 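Also: static incubation at 37 °C against the wild-type strain, values averaged over two biological replicates.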
row,Structure (SMILES),relative growth
1,COc1ccccc1C(=O)Nc1ccc2c(c1)C(=O)N(C)[C@H]1CC[C@H](CC(=O)NCc3ccc(Cl)c(Cl)c3)O[C@H]1CO2,inactive: 1.04
2,Cc1ccc(S(=O)(=O)Nc2ccc3c(c2)C(=O)N([C@H](C)CO)C[C@@H](C)[C@H](CN(C)C(=O)Nc2ccc(C(F)(F)F)cc2)OCCCC[C@@H](C)O3)cc1,inactive: 1.02
3,COc1ccc(NC(=O)Nc2ccc3c(c2)C(=O)N([C@@H](C)CO)C[C@H](C)[C@@H](CN(C)S(=O)(=O)c2ccc(Cl)cc2)OCCCC[C@H](C)O3)cc1,inactive: 1.06
4,C[C@H](CO)N1C[C@H](C)[C@@H](CN(C)S(=O)(=O)c2cn(C)cn2)Oc2c(NC(=O)Nc3ccc(F)cc3)cccc2C1=O,inactive: 0.99
5,CC(C)CCCC(C)C1CCC2C3CC(=O)C4CC(O)CCC4(C)C3CCC12C (stereo not drawn) [5alpha-CHOLESTAN-3beta-OL-6-ONE],inactive: 0.844
6,C[C@@H]1CN([C@H](C)CO)C(=O)c2c(c3ccccc3n2C)-c2ccccc2CO[C@H]1CN(C)Cc1ccc(C(F)(F)F)cc1,inactive: 1.13
7,C[C@H](CO)N1C[C@H](C)[C@@H](CN(C)S(=O)(=O)c2ccc(F)cc2)OCCCC[C@H](C)Oc2ccc(NC(=O)c3ccccc3)cc2C1=O,inactive: 1.03
8,C[C@@H]1CCCCO[C@@H](CN(C)C(=O)CCC(F)(F)F)[C@H](C)CN([C@H](C)CO)C(=O)c2cc(NC(=O)C3CCCCC3)ccc2O1,inactive: 1
9,CO[C@@H]1CN(C)C(=O)c2cc(NS(=O)(=O)c3cn(C)cn3)ccc2OC[C@H](C)N(CCC(F)(F)F)C[C@H]1C,inactive: 1.01
10,C[C@@]12CCC[C@](C)(C(=O)O[C@@H]3O[C@H](CO)[C@@H](O)[C@H](O)[C@H]3O)[C@@H]1CC[C@]13C[C@H](CC[C@@H]12)[C@](O)(CO)C3,inactive: 1.01
11,O=C(C[C@H]1C=C[C@@H](NC(=O)c2cccnc2)[C@H](CO)O1)NCc1ccncn1,inactive: 0.979
12,COc1ccc(CN2C[C@H](C)[C@@H](OC)CN(C)C(=O)c3ccc(NC(=O)c4nc5ccccc5s4)cc3OC[C@H]2C)cc1,inactive: 1.01
13,C[C@H](CO)N1C[C@H](C)[C@@H](CN(C)Cc2ccc(F)cc2)Oc2cc(C#CC(C)(C)O)ccc2S1(=O)=O,inactive: 1.01
14,CC(C)NC(=O)N(C)C[C@H]1Oc2c(NS(=O)(=O)c3cn(C)cn3)cccc2C(=O)N([C@@H](C)CO)C[C@H]1C,inactive: 0.99
15,COc1ccc(CN(C)C[C@@H]2OCCCC[C@@H](C)Oc3ccc(NC(=O)c4ccccc4)cc3C(=O)N([C@H](C)CO)C[C@H]2C)cc1,inactive: 1.02
16,NCC[C@@H]1CC[C@@H](NC(=O)C2CCCCC2)[C@@H](CO)O1,inactive: 0.97
17,C[C@H](CO)N1C[C@H](C)[C@H](CN(C)S(C)(=O)=O)Oc2ccc(NS(=O)(=O)c3ccccc3)cc2C1=O,inactive: 0.988
18,C[C@@H]1CN([C@H](C)CO)C(=O)c2cc(NC(=O)NC3CCCCC3)ccc2O[C@@H](C)CCCCO[C@@H]1CN(C)C(=O)c1ccncc1,inactive: 0.987
19,C[C@@H]1CN([C@H](C)CO)S(=O)(=O)c2ccc(C#CC3(O)CCCC3)cc2O[C@@H]1CN(C)C(=O)Cc1cccnc1,inactive: 1
20,COc1ccc(S(=O)(=O)Nc2cccc3c2O[C@H](CN(C)S(=O)(=O)c2ccc(C)cc2)[C@@H](C)CN([C@H](C)CO)C3=O)cc1,inactive: 0.987

row,Structure (SMILES),relative growth
1,C[C@@H]1CN([C@H](C)CO)C(=O)CCCn2nncc2CO[C@@H]1CN(C)S(=O)(=O)c1ccc(-n2cccn2)cc1,inactive: 1
2,COc1ccc(NC(=O)Nc2ccc3c(c2)CC(=O)N([C@@H](C)CO)C[C@H](C)[C@H](CN(C)C(=O)Nc2ccc(C(F)(F)F)cc2)O3)cc1,inactive: 1.01
3,C[C@H](CO)N1C[C@H](C)[C@H](CN(C)CC2CCCCC2)OCCCC[C@H](C)Oc2ccc(NC(=O)c3ccccc3)cc2C1=O,inactive: 0.906
4,C[C@@H]1CN([C@@H](C)CO)C(=O)c2cccc(N(C)C)c2O[C@@H]1CN(C)S(=O)(=O)c1ccc(Cl)cc1,inactive: 1.01
5,C[C@@H]1CCCCO[C@H](CN(C)C(=O)NC2CCCCC2)[C@@H](C)CN([C@H](C)CO)C(=O)c2cc(NC(=O)CCC(F)(F)F)ccc2O1,inactive: 0.973
6,Cc1noc(C)c1NC(=O)N(C)C[C@H]1OCCCC[C@H](C)Oc2ccc(NS(=O)(=O)c3ccccc3)cc2C(=O)N([C@H](C)CO)C[C@@H]1C,inactive: 1.01
7,C[C@@H]1CN([C@H](C)CO)S(=O)(=O)c2ccc(C#Cc3ccccc3F)cc2O[C@@H]1CN(C)C(=O)Cc1ccncc1,inactive: 1.02
8,COc1ccc(C#Cc2ccc3c(c2)O[C@@H](CN(C)C(=O)CN2CCOCC2)[C@@H](C)CN([C@H](C)CO)S3(=O)=O)cc1,inactive: 0.997
9,C[C@@H]1CCCCO[C@@H](CN(C)C(=O)c2ccncc2)[C@@H](C)CN([C@@H](C)CO)C(=O)c2cc(NC(=O)C3CCCCC3)ccc2O1,inactive: 1.01
10,COc1ccc(NC(=O)N(C)C[C@@H]2Oc3c(NC(=O)c4cnccn4)cccc3C(=O)N([C@@H](C)CO)C[C@H]2C)cc1,inactive: 0.965
11,CN1C(=O)c2cc(NC(=O)Nc3cccc(C#N)c3)ccc2OC[C@H]2O[C@@H](CC(=O)Nc3ccc4c(c3)CCC4)CC[C@@H]21,inactive: 0.984
12,CO[C@H](CN(C)S(=O)(=O)c1ccc(Cl)cc1)[C@@H](C)CN([C@@H](C)CO)S(=O)(=O)c1cccc(Cl)c1,inactive: 1.01
13,C[C@@H]1CN([C@H](C)CO)C(=O)c2cc(NC(=O)CCCN(C)C)ccc2O[C@@H](C)CCCCO[C@H]1CN(C)S(=O)(=O)c1cn(C)cn1,inactive: 1.03
14,COc1ccc2c3c([nH]c2c1)[C@H](CO)N(Cc1ccc(cc1)Cl)C[C@]13CN(CCc2ccccc2)C1,inactive: 0.951
15,C[C@@H]1CN([C@H](C)CO)C(=O)c2cccc(NC(=O)Nc3cccc4ccccc34)c2O[C@H]1CN(C)S(=O)(=O)c1ccc(F)cc1,inactive: 1.03
16,CC(C)c1cc(=O)n2nc(N)nc2[nH]1,inactive: 1.01
17,C[C@H](CO)N1C[C@H](C)[C@@H](CN(C)CC2CCOCC2)Oc2cc(Br)ccc2S1(=O)=O,inactive: 0.977
18,O=C1N[C@@H](Cc2c[nH]c3ccccc23)COC(=O)[C@@H](Cc2ccc(F)cc2)CC=CC[C@@H]1CC(=O)N(CCO)Cc1ccccc1,inactive: 0.995
19,Cc1ccc(S(=O)(=O)N(C)C[C@H]2Oc3c(NC(=O)c4cc(C)nn4C)cccc3C(=O)N([C@H](C)CO)C[C@@H]2C)cc1,inactive: 0.992
20,C[C@H](CO)N1C[C@H](C)[C@@H](CN(C)Cc2ccc(-c3ccccc3)cc2)Oc2c(NC(=O)C3CCCCC3)cccc2C1=O,inactive: 1.02

row,Structure (SMILES),relative growth
1,O=C(NC1CC1)[C@@H]1c2ccccc2C(=O)N(Cc2cc(F)cc(C(F)(F)F)c2)[C@H]1c1ccc(CO)cc1,inactive: 0.9
2,CN1CCN(C(=O)C[C@@H]2CC[C@H]3[C@@H](COC[C@@H](O)CN3C(=O)Nc3ccc4c(c3)OCO4)O2)CC1,inactive: 0.978
3,Cc1ccc(S(=O)(=O)Nc2ccc3c(c2)C(=O)N([C@H](C)CO)C[C@@H](C)[C@@H](CN(C)C(=O)Nc2ccc(C(F)(F)F)cc2)O3)cc1,inactive: 0.914
4,CCNC(=O)C[C@@H]1CC[C@H]2[C@@H](COC[C@H](O)CN2C(=O)Nc2c(C)noc2C)O1,inactive: 0.966
5,C[C@@H]1CN([C@H](C)CO)C(=O)Cc2cc(NS(=O)(=O)c3cn(C)cn3)ccc2O[C@H]1CN(C)C(=O)NC1CCCCC1,inactive: 1.01
6,CC(C)(C)NC[C@@]1(CO)SC(N)=NC1=O,inactive: 0.984
7,O=C(Cc1ccccn1)NCC[C@H]1CC[C@H](NC(=O)CN2CCOCC2)[C@@H](CO)O1,inactive: 0.994
8,CNc1cccc(CN)c1,inactive: 1
9,O=C(NO)c1cn(-c2ccc(C[C@H]3C(=O)O[C@@H](Cc4ccccc4)[C@H]4C=C(/C=C/C5CC5)CN43)cc2)nn1,inactive: 0.966
10,C[C@H]1CN([C@@H](C)CO)C(=O)Cc2cc(NC(=O)Nc3cccc4ccccc34)ccc2O[C@H]1CN(C)C(=O)Nc1ccc(C(F)(F)F)cc1,inactive: 1
11,NC(=O)[C@H]1[C@H](C(=O)O)[C@@H]2C=C[C@H]1C2,inactive: 1.01
12,O=C1c2ccccc2[C@@]2(Cc3ccccc3N(CC(F)(F)F)C2=O)[C@H](c2ccc(CO)cc2)N1C1CCCCC1,inactive: 1.01
13,CCCCCN1CC=C[C@@]23O[C@@H]4C=CCOC(=O)[C@@H]4[C@H]2C(=O)N([C@@H](C)CO)[C@@H]3C1=O,inactive: 0.968
14,C[C@@H]1CN([C@@H](C)CO)C(=O)c2cc(C#CC3(O)CCCC3)cnc2O[C@H]1CN(C)S(=O)(=O)c1cccc(F)c1,inactive: 1.02
15,COc1ccc(NC(=O)N(C)C[C@@H]2Oc3c(NS(=O)(=O)c4cn(C)cn4)cccc3C(=O)N([C@H](C)CO)C[C@@H]2C)cc1,inactive: 0.983
16,C[C@@H]1CN([C@@H](C)CO)C(=O)Cc2cc(NS(=O)(=O)c3ccc(F)cc3)ccc2O[C@H]1CN(C)S(=O)(=O)c1cn(C)cn1,inactive: 0.985
17,CC(C)NC(=O)N(C)C[C@H]1Oc2ccc(NC(=O)CCN3CCOCC3)cc2CC(=O)N([C@H](C)CO)C[C@H]1C,inactive: 0.99
18,COCC(=O)N(C)C[C@@H]1Oc2cc(C#CC(C)(C)O)ccc2S(=O)(=O)N([C@@H](C)CO)C[C@H]1C,inactive: 1
